# Laboratory results: PubChem BioAssay AID1461 (National Center for Advancing Translational Sciences (NCATS), 2008)
# About 2,300 (1%) of roughly 220,000 compounds were called active. Inconclusive means that the source gave no clear call. Such entries were picked first, then a sample of the others. Calls follow the shape of the dose curve; as a rule, active = well fitted inhibition curve with a large enough effect; inconclusive = small, poorly fitted or top-dose-only effect, or effect the other way; inactive = no such curve, though single readings can be large or run the other way. Potencies of inconclusive entries are left out as doubtful fits.
# Molecular target: Neuropeptide S receptor (Homo sapiens) (UniProt Q6W5P4)
# UniProt Q6W5P4, sequence (Q6W5P4 whole entry, looked up): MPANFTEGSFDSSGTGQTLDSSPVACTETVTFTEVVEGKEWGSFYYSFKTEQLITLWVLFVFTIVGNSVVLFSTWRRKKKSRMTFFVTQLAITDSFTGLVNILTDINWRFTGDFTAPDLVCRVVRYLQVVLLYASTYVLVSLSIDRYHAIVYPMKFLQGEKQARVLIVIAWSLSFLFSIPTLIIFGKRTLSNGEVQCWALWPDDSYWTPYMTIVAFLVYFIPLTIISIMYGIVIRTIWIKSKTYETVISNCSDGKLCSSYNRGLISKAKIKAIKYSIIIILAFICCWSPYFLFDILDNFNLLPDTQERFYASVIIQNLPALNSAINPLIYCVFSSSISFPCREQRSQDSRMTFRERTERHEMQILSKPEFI
# Assay: qHTS Assay for Antagonists of the Neuropeptide S Receptor: cAMP Signal Transduction; also: nearly all actives have a fitted effect of over 50% in size
# Conditions: CHO-NPSR cells, cAMP TR-FRET, antagonist mode; activity change, negative = inhibition: at 38.3 µM (top of the series) unless noted
# % is scaled to controls: 0 for no effect and ±100 for the full control effect; potency is read from the fitted curve at half-maximal effect; tags tell the direction and shape of the fitted curve.
Structure (SMILES),Potency,"activity change, negative = inhibition"
CCC(Sc1nc(C)cc(=O)[nH]1)C(=O)Nc1sc2c(c1C#N)CCCC2 (centres undefined),inactive,–
CCCCCNCC(=O)Nc1cccc(C(=O)Nc2cccc(C(F)(F)F)c2)c1,"inconclusive [activator, partial curve]",–
COc1ccc(OCC(=O)N2CCc3c([nH]c4ccccc34)C2c2ccccn2)cc1 (centres undefined),inactive,–
CC(=O)c1cnc2cc(-c3ccc(C)cc3)nn2c1C,inactive,–
O=C(CN1C(=O)COc2ccc(Cl)cc21)N1CCc2ccccc21,"inconclusive [inhibitor, single point]",–
C=CCc1ccc(O)c(-c2cc(CC=C)ccc2O)c1,"inconclusive [activator, single point]",–
CC(=O)/C(=N/Nc1ccccc1)N1CCOCC1,inactive,–
COCCNC(=O)c1ccccc1NC(=O)c1ccc(Cl)c(S(=O)(=O)Nc2ccc(C)cc2C)c1,"inconclusive [inhibitor, single point]",–
N=c1c2c(-c3ccccc3)c(-c3ccccc3)oc2ncn1Cc1ccco1,"inconclusive [inhibitor, partial curve, poor fit]",–
C=CCn1c(SCC(=O)c2ccc(Br)cc2)nnc1C(CC(C)C)NC(=O)c1cccs1 (centres undefined),"inconclusive [inhibitor, single point]",–
CC(NCC(O)c1ccc([N+](=O)[O-])cc1)C12CC3CC(CC(C3)C1)C2 (centres undefined),"inconclusive [activator, single point]",–
O=C(c1ccc2c(=O)n3c(nc2c1)CCCCC3)N1CCN(C(c2ccccc2)c2ccccc2)CC1,"inconclusive [inhibitor, single point]",–
COc1ccc(NC(=S)N(Cc2ccc(N(C)C)cc2)Cc2ccco2)cc1,inactive,–
O=C(N/N=C/c1cccc([N+](=O)[O-])c1)c1ccc2nc[nH]c2c1,inactive,–
Cc1cc(C)c(/C=N/NC(=O)c2nnn(-c3nonc3N)c2COc2ccc(F)cc2)c(C)c1,"inconclusive [activator, single point]",–
O=C(/C=C/c1ccc(-c2ccccc2[N+](=O)[O-])o1)c1ccc(F)cc1,"inconclusive [inhibitor, partial curve]",–
Cc1cc(C2=NNC(=NCCc3ccccc3)SC2)c(C)n1CC1CCCO1 (centres undefined),inactive,–
Fc1cccc(NC(=S)N2CCCC2)c1,inactive,–
N#Cc1c(N)nc(SCC(=O)NC2CCCCC2)c(C#N)c1-c1ccc(Cl)cc1,"inconclusive [activator, single point]",–
COc1cccc(-c2nnc3n2N=C(c2cc(OC)ccc2OC)CS3)c1,"inconclusive [inhibitor, partial curve]",–
COc1cccc(-n2nnc3c(=O)n(CC(=O)NCC4CCCO4)cnc32)c1 (centres undefined),"inconclusive [activator, partial curve]",–
CCOC(=O)c1cc2c(ccn2C)n1Cc1cc(C)ccc1C,"inconclusive [inhibitor, single point]",–

Structure (SMILES),Potency,"activity change, negative = inhibition"
CCOc1ccc(C(CCc2ccccc2)NC(=O)c2ccccc2F)cc1OCC (centres undefined),"inconclusive [inhibitor, single point]",–
Cc1cc(CSc2ccccc2)ccc1NC(=O)c1ccc(Cl)c([N+](=O)[O-])c1,"inconclusive [inhibitor, single point]",–
CCOC(=O)N1CCN(C(=O)c2ccc3c(=O)n(Cc4ccc(Cl)cc4)c(=S)[nH]c3c2)CC1,"inconclusive [inhibitor, single point]",–
O=C(OCc1ccc(F)cc1Cl)c1ccccn1,"inconclusive [inhibitor, partial curve, poor fit]",–
Cc1cccc(N2CCN(C(=O)C3CCN(S(=O)(=O)c4cccc5nsnc45)CC3)CC2C)c1 (centres undefined),"inconclusive [inhibitor, single point]",–
COc1ccc2cc(C)c(SCC(=O)Nc3cc(C)on3)nc2c1,"inconclusive [inhibitor, single point]",–
CN(C)c1nccc(N(Cc2ccccc2)Cc2ccccc2)c1C#N,"inconclusive [inhibitor, single point]",–
COc1ccccc1C(=O)n1nc(-c2ccccc2)nc1NCc1ccco1,"inconclusive [inhibitor, partial curve, poor fit]",–
N#CCC(=O)N/N=C/c1cn(Cc2cccc3ccccc23)c2ccccc12,"inconclusive [activator, single point]",–
Cc1ccc2c(c1)cc(C)c1nnc(SCC(=O)NCc3ccco3)n12,"inconclusive [inhibitor, single point]",–
O=C(Nc1cccc(S(=O)(=O)N2CCOCC2)c1)C(c1ccccc1)N1CCCCC1 (centres undefined),inactive,–
CC(SCc1ccccc1)C(=O)Nc1ccccc1-c1ccccc1 (centres undefined),"inconclusive [inhibitor, single point]",–
O=c1cnnc(NCc2ccccc2)[nH]1,inactive,–
Cc1cccc(CN(CC(=O)N/N=C/c2cccs2)S(=O)(=O)c2ccc(Cl)cc2)c1,"inconclusive [inhibitor, partial curve]",–
COc1cc(NC(=O)c2ccccc2)c(OC)cc1NC(=O)CN1CCOCC1,inactive,–
CC(=O)Nc1ccc2c(CSc3nnc(N)s3)cc(=O)oc2c1,–,inactive: -11.7% [at 7.67 µM]
COc1ccc(C(=O)/C=C/c2cc(OC)c(O)c(OC)c2)c(F)c1,inactive,–
Cc1ccc(/C(C#N)=C\c2ccc(N3CCOCC3)o2)cc1,"inconclusive [inhibitor, partial curve]",–
CCOC(=O)C1=C(C)NC2=C(C(=O)c3ccccc32)C1c1ccc([N+](=O)[O-])o1 (centres undefined),"inconclusive [activator, partial curve]",–
COC(=O)C1CCN(C(=O)/C=C/c2ccccc2)CC1,inactive,–
Cc1ccccc1C(=O)c1cccn1CC(=O)NCCN1CCN(c2cccc(C)c2C)CC1,"inconclusive [inhibitor, single point]",–
O=C(O)CCN1C(=O)/C(=C\c2ccc(-c3nc4ccccc4s3)o2)SC1=S,active: 12.6 µM,–
